From patent publication US20230371550A1 (priority 2017, published 2023)

Columns and labels:
[1] = system: enterohemorrhagic E. coli infections; settings: 10 days
Description: (§1) In a field study in a commercial piglet farm with evident problems with enterohemorrhagic E. coli infections a number of 360 piglets was divided into 6 groups after weaning. All animals received a commercial standard diet for weaning piglets (Table 2). The “zero control group” received this feed without addition of any therapeutics or additives. For the “antibiotic group” (positive control group) Neomycin was added to the feed in a therapeutic dosage of 10 mg Neomycin sulfate/kg body mass/day “on-top”. The four test groups received the weaning diet with an “on-top” addition of various concentrations of the test substance. The test substance was a quorum sensing inhibitor of the invention, comprising a product composed of wood from spruce and pine tree.
Incidence of diarrhea was reported for all groups during the test period of 10 days.

[2] = system: enterohemorrhagic E. coli infections; settings: 10 days; remark: listed apart in the source
Description: In a field study in a commercial piglet farm with evident problems with enterohemorrhagic E. coli infections a number of 360 piglets was divided into 6 groups after weaning. All animals received a commercial standard diet for weaning piglets (see Example 1, Table 2). The zero control group received this feed without addition of any therapeutics or additives. For the Neomycin control group Neomycin was added to the feed in a therapeutic dosage of 10 mg Neomycin sulfate/kg body mass/day. The four test groups received the weaning diet with addition of the test substance in various concentrations. In this example, the test substance was a mixture of wood from spruce and pine tree in combination with an oligomeric procyanidin with more than 8 catechin units in an amount of 0.3 wt %. Incidence of diarrhea was reported for all groups during the test period of 10 days.

[3] = in vivo
Description: as §1
In the test an effect of the feed additive of the invention was even evaluated in regard of the body temperature of the animals.

Work on Neomycin yielded an Incidence of diarrhea [1] of 56.7%, an Incidence of diarrhea [2] of 60% and an Average body temperature [3] of 39.6 °C.

Like-named read-outs stand apart in the source and are kept apart here.
